# Results as given in PubChem BioAssay (Tox21).
# This list was built around the results that the source calls inconclusive (neither active nor inactive); the mix of calls is not that of the screen. A call without a number means that no potency is given here. For some assays here: Potencies of inconclusive entries are doubtful fits and often do not repeat. Where a structure was tested more than once in an assay, its records may differ in their call. The source made the active and inactive calls. Unless noted, calls come from the whole dose curve; as a rule, active = well fitted curve in the direction sought with a large enough effect in the repeat runs; inconclusive = weak or mixed curves; inactive = no such curve, though single readings can be large; an effect the other way counts as inactive or inconclusive.
# Experiments:
# [1] = qHTS assay for small molecule agonists of the p53 signaling pathway (AID 651631; calls by dose curve; note: nearly all actives have a fitted effect of over 15% in size; note: potency is the fitted concentration of half-maximal effect); settings: HCT-116 p53RE-bla reporter, beta-lactamase FRET ratio, 16 h; activation: at 73.3 µM (top of the series) unless noted
# In short: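 HCT-116 cells carrying a stable p53 response element–beta-lactamase reporter were plated, rested 5 h at 37 °C, then exposed to compound in DMSO for 16 h at 37 °C; reporter activity was read as FRET substrate fluorescence after 2 h at room temperature.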
# [2] = qHTS assay for identifying genotoxic compounds that show differential cytotoxicity against isogenic chicken DT40 cell lines with known DNA damage response pathways - wild type cell line (AID 743012); settings: DT40 wild type chicken cells viability, CellTiter-Glo, 40 h; activity change, negative = cytotoxicity: at 68.4 µM (top of the series) unless noted; note: nearly all actives have a fitted effect of over 60% in size
# In short: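 Endpoint: CellTiter-Glo luminescence, 30 min RT. Cells: wild type DT40, 300/well. Exposure: compounds in DMSO, 40 h, 37 C/5% CO2, after ~0.5 h pre-incubation.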
# [3] = qHTS assay to identify small molecule antagonists of the estrogen receptor alpha (ER-alpha) signaling pathway - cell viability counter screen (AID 743074; calls by dose curve;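 note: HEK293 cells carrying ER-alpha-UAS-bla reporter stimulated with 17beta-estradiol; nearly all actives have a fitted effect of over 45% in size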; note: potency is the fitted concentration of half-maximal effect)
# [4] = qHTS assay for small molecule agonists of the antioxidant response element (ARE) signaling pathway (AID 743202; active = well fitted activation curve with a large enough effect in the signal ratio in the repeat runs, not every such curve was filed as active; inconclusive = weak or mixed curves, or effect the other way; inactive = no such curve, though single readings can be large or run the other way; the % refers to the signal ratio; note: potency is the fitted concentration of half-maximal effect); settings: HepG2 ARE-bla reporter, beta-lactamase FRET, 16 h; activation: at 73.3 µM (top of the series) unless noted
# In short: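 After 16 hours of compound treatment at 37 C, HepG2 cells with a stably integrated ARE-driven beta-lactamase reporter were loaded 2 hours at room temperature with LiveBLAzer B/G FRET substrate and fluorescence intensity measured.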
# [5] = qHTS assay to identify small molecule agonists of the hypoxia (HIF-1) signaling pathway - cell viability counter screen (AID 1224844; calls by dose curve; note: nearly all actives have a fitted effect of over 50% in size)
# In short: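 HRE-bla ME-180; 0.5% dFBS; cpd 17 h, 37C, 5% CO2; CellTiter-Glo lum., 30 min RT, post-FRET read, same wells.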
# [6] = qHTS assay to identify small molecule antagonists of the progesterone receptor (PR) signaling pathway - cell viability counter screen (AID 1346798); note: nearly all actives have a fitted effect of over 50% in size; note: potency is the fitted concentration of half-maximal effect
# In short: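 PR-UAS-bla HEK293T cells in medium with 2% charcoal-stripped FBS were treated with compounds plus R5020 for 16 hr at 37C. Cell viability was then read by CellTiter-Glo luminescence after 30 min at room temperature in the same wells.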
# [7] = qHTS assay to identify small molecule agonists of the progesterone receptor (PR) signaling pathway - cell viability counter screen (AID 1346799; calls by dose curve; note: nearly all actives have a fitted effect of over 45% in size; note: potency is the fitted concentration of half-maximal effect)
# In short: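 PR-UAS-bla HEK293T cells, 3,000 per well in medium with 2% charcoal-stripped FBS, were preincubated 6 hr at 37C, then exposed to compounds for 16 hr; viability was read as CellTiter-Glo luminescence after 30 min at room temperature.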
# [8] = biological target: Glucocorticoid receptor (Homo sapiens) (UniProt P04150); test: qHTS assay to identify small molecule antagonists of the glucocorticoid receptor (GR) signaling pathway (AID 720692; active = well fitted inhibition curve with a large enough effect in the signal ratio in the repeat runs, not every such curve was filed as active; inconclusive = weak or mixed curves, or effect the other way; inactive = no such curve, though single readings can be large or run the other way; the % refers to the signal ratio; note: potency is the fitted concentration of half-maximal effect); settings: GR-bla HeLa, beta-lactamase FRET ratio, dexamethasone-stimulated, 18 h; activity change, negative = inhibition: at 58.5 µM (top of the series) unless noted
# In short: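 Tox21 10K library screened in concentration-response for blockade of dexamethasone (5 nM final)-induced GRE-bla reporter activity in HeLa cells; 18 h treatment, fluorescence read.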
# [9] = qHTS assay to identify small molecule agonists of H2AX (AID 1224845; active = well fitted activation curve with a large enough effect in the signal ratio in the repeat runs, not every such curve was filed as active; inconclusive = weak or mixed curves; the % refers to the signal ratio; note: potency is the fitted concentration of half-maximal effect); settings: CHO-K1 phospho-H2AX Ser139 HTRF, 3 h; activation (H2AX phosphorylation): at 154 µM (top of the series) unless noted
# In short: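 Phospho-H2AX Ser139 measured by HTRF (ex 320 nm; em 665 and 620 nm) after 24 hr antibody incubation. Compounds, 15 concentrations, 0.76% DMSO, were applied to CHO-K1 cells for 3hr at 37C before lysis.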
# [10] = biological target: Cytochrome P450 2D6 (Homo sapiens) (UniProt P10635); test: Cytochrome P450 Family 2 Subfamily D Member 6 (CYP2D6) small molecule antagonists: luciferase reporter qHTS assay (AID 1671196); note: nearly all actives have a fitted effect of over 50% in size; note: potency is the fitted concentration of half-maximal effect
# In short: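 Chemicals tested for interference with CYP2D6 activity; proluciferin substrate, NADPH regeneration, 1 h at room temperature, luminescent detection.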
# [11] = biological target: Cytochrome P450 2C9 (Homo sapiens) (UniProt P11712); test: Cytochrome P450 Family 2 Subfamily C Member 9 (CYP2C9) small molecule antagonists: luciferase reporter qHTS assay (AID 1671198); note: nearly all actives have a fitted effect of over 50% in size; note: potency is the fitted concentration of half-maximal effect
# In short: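 Enzyme-substrate mix preincubated with compound 10 min at room temperature; reaction started with NADPH regeneration solution, 1 h 37C. Luminescent luciferin product read after 20 min detection reagent.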
# [12] = qHTS assay for small molecule disruptors of the mitochondrial membrane potential (AID 720635); settings: HepG2 mitochondrial membrane potential, Mito-MPS dye ratio
# In short: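 Mitochondrial membrane potential tracked with Mito-MPS dye, red aggregates (ex 540/em 590 nm) against green monomers (ex 490/em 535 nm). Compound treatment 1 hr at 37C, dye 30 min in HepG2.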
# [13] = qHTS assay to identify small molecule antagonists of the thyroid receptor (TR) signaling pathway - cell viability counter screen (AID 743064); settings: GH3.TRE-Luc viability, CellTiter-Fluor, 24 h; activity change, negative = cytotoxic: at 70.3 µM (top of the series) unless noted; note: nearly all actives have a fitted effect of over 50% in size; note: potency is the fitted concentration of half-maximal effect
# In short: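 GH3.TRE-Luc rat pituitary cells carrying a TRE-luciferase reporter were treated with compound plus 1 nM T3 (final) for 23.5 h at 37 °C. Viability was then read in the same wells by CellTiter-Fluor fluorescence after a further 30 min.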
# [14] = qHTS assay to identify small molecule antagonists of the peroxisome proliferator-activated receptor delta (PPARd) signaling pathway - cell viability counter screen (AID 743213); settings: PPARd-bla HEK293H viability, CellTiter-Glo luminescence, 17 h; viability change, negative = cytotoxic: at 62 µM (top of the series) unless noted; note: nearly all actives have a fitted effect of over 50% in size; note: potency is the fitted concentration of half-maximal effect
# In short: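 Agonist-stimulated (L165041, 300 nM final) HEK293H PPARd UAS-bla cells are exposed to compounds for 17 h at 37 C, and ATP-based luminescence (CellTiter-Glo) from the same wells reports cytotoxicity.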
# [15] = biological target: Vitamin D3 receptor (Homo sapiens) (UniProt P11473); test: qHTS assay to identify small molecule antagonists of the vitamin D receptor (VDR) signaling pathway (AID 743223; active = well fitted inhibition curve with a large enough effect in the signal ratio in the repeat runs, not every such curve was filed as active; inconclusive = weak or mixed curves, or effect the other way; inactive = no such curve, though single readings can be large or run the other way; the % refers to the signal ratio); settings: VDR-UAS-bla HEK293T, beta-lactamase FRET ratio, 16 h; activity change, negative = inhibition: at 61 µM (top of the series) unless noted
# In short: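 VDR-bla cells were plated, incubated 4 h at 37C, then given compound and 1alpha,25-dihydroxyvitamin D3 (3 nM final). After 16 h at 37C, LiveBLAzer B/G FRET substrate was added for 2 h at room temperature and fluorescence read.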
# [16] = biological target: Cytochrome P450 1A2 (Homo sapiens) (UniProt P05177); test: Cytochrome P450 Family 1 Subfamily A Member 2 (CYP1A2) small molecule antagonists: luciferase reporter qHTS assay (AID 1671199)
# In short: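 Read-out is luminescence from luciferin detection reagent (20 min) proportional to CYP1A2 activity; compounds in DMSO preincubated 10 min with enzyme and proluciferin substrate, then NADPH regeneration solution, 1 h, room temperature.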
# [17] = biological target: Peroxisome proliferator-activated receptor gamma (Homo sapiens) (UniProt P37231); test: qHTS assay to identify small molecule antagonists of the peroxisome proliferator-activated receptor gamma (PPARg) signaling pathway (AID 743191; calls by dose curve; note: nearly all actives have a fitted effect of over 30% in size; note: potency is the fitted concentration of half-maximal effect); settings: HEK293H PPARg-UAS-bla, beta-lactamase ratio, antagonist, 17 h; ratio activity, negative = inhibition: at 62.6 µM (top of the series) unless noted
# In short: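 Beta-lactamase reporter under UAS control in HEK293H PPARg-bla cells; compound treatment 17 h at 37C. Read-out: fluorescence intensity after 1 h room-temperature incubation with LiveBLAzer B/G FRET substrate.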
# [18] = biological target: Cytochrome P450 2C19 (Homo sapiens) (UniProt P33261); test: Cytochrome P450 Family 2 Subfamily C Member 19 (CYP2C19) small molecule antagonists: luciferase reporter qHTS assay (AID 1671197); note: nearly all actives have a fitted effect of over 65% in size; note: potency is the fitted concentration of half-maximal effect
# In short: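 Quantitative high-throughput screen of the Tox21 library using CYP2C19 with proluciferin substrate. Reaction: NADPH regeneration, 37C, 1 h, after 10 min compound preincubation at room temperature. Readout: luminescence.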
# [19] = ratio activity, negative = MMP loss: at 83.2 µM (top of the series) unless noted
# Tags give direction and shape of the fitted curve or compound fluorescence and quenching.
# UniProt P10635, sequence (P10635 whole entry, looked up): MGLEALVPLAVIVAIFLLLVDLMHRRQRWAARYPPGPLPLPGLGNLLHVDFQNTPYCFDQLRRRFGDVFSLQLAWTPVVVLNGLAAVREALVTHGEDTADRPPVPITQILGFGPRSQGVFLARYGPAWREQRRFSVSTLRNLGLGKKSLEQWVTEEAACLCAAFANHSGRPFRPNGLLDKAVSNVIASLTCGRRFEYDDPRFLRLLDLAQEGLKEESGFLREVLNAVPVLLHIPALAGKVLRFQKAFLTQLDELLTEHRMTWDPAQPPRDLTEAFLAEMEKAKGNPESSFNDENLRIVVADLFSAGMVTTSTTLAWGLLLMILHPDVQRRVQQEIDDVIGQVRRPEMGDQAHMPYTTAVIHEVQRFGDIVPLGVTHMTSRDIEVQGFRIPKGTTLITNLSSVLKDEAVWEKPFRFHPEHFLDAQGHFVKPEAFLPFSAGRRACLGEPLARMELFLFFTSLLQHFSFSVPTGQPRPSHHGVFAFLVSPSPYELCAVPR
# UniProt P37231, sequence (P37231 whole entry, looked up): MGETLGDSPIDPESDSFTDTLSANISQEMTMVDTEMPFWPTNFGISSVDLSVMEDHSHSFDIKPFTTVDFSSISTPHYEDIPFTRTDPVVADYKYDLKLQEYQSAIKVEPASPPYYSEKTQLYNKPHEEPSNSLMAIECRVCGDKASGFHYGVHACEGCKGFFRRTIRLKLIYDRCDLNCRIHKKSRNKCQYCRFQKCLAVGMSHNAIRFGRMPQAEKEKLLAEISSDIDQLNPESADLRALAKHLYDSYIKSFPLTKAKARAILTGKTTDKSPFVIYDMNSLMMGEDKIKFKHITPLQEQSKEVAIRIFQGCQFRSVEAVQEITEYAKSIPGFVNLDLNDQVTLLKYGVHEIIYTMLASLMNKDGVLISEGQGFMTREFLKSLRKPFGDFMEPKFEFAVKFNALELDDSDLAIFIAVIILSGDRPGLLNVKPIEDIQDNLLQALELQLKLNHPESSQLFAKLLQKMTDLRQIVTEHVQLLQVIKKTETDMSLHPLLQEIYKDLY
# UniProt P04150, sequence (P04150 whole entry, looked up): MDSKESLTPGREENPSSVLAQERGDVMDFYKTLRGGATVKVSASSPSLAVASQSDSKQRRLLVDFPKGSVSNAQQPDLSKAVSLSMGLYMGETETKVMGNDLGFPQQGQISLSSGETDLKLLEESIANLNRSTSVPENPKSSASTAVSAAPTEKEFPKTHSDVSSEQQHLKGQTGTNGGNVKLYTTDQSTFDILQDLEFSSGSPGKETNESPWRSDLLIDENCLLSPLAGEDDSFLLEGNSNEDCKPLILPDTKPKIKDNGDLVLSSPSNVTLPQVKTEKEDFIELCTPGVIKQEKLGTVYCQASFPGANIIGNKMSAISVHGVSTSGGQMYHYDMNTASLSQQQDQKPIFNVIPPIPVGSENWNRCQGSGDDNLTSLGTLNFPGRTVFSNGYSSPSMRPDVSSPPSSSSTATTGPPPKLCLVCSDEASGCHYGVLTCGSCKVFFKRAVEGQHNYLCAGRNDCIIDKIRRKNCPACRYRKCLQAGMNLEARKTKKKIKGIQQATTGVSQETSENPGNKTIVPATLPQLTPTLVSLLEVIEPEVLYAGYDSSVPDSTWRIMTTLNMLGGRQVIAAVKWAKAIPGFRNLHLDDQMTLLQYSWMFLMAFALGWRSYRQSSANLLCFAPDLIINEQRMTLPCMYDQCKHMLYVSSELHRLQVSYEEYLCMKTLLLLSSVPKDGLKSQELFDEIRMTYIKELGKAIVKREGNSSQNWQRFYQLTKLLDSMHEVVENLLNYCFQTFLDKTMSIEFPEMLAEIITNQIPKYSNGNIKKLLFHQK
# UniProt P11712, sequence (P11712 whole entry, looked up): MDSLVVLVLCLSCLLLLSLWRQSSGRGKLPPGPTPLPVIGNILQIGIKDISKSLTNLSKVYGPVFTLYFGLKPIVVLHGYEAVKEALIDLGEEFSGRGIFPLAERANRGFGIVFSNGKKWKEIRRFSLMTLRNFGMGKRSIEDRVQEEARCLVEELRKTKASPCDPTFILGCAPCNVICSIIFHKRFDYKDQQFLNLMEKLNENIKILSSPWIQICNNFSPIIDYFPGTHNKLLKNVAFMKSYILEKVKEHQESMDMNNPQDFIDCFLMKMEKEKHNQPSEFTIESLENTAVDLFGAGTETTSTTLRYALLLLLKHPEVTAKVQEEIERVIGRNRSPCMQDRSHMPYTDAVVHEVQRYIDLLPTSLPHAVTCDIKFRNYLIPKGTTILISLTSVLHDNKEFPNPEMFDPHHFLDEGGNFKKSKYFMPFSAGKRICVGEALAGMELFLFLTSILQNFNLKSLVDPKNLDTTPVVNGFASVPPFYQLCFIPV
# UniProt P05177, sequence (P05177 whole entry, looked up): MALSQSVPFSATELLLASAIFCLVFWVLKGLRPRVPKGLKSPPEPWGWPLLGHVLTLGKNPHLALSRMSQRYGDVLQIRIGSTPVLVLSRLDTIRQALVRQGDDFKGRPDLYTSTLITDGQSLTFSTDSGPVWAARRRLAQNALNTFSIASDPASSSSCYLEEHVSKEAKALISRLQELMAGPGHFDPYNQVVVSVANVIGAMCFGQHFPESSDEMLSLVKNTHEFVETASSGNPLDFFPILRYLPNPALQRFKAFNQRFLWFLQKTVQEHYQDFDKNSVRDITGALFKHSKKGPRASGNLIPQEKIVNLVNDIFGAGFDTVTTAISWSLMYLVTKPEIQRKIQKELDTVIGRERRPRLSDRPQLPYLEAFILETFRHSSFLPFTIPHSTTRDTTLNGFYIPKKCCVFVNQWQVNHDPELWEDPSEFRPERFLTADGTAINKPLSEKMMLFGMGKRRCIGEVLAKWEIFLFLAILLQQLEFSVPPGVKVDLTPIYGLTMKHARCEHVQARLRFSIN
# UniProt P33261, sequence (P33261 whole entry, looked up): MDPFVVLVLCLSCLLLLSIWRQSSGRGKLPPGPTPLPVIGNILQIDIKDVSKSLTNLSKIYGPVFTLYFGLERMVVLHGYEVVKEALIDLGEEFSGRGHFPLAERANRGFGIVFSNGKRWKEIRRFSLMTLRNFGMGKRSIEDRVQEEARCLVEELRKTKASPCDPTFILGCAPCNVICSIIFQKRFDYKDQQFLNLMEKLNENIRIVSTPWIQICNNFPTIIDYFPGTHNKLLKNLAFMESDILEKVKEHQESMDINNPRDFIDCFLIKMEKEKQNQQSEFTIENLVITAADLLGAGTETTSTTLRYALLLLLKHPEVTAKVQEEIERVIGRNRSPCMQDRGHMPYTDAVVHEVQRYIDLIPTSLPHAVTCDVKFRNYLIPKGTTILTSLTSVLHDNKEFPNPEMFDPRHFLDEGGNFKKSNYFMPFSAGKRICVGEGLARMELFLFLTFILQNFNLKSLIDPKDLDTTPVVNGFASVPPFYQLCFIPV
# UniProt P11473, sequence (P11473 whole entry, looked up): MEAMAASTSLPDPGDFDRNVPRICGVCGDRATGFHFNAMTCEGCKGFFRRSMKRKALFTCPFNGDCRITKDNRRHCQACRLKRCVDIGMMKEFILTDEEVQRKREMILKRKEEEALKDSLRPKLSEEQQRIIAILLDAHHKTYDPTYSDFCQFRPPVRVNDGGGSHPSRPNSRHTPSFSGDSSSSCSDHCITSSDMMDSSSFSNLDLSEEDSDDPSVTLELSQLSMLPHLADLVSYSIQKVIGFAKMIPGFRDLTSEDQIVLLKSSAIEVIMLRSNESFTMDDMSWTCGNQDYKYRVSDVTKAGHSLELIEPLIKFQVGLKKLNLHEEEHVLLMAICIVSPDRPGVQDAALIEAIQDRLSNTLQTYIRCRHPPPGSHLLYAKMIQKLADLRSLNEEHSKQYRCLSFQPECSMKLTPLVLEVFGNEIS
smiles,measurement,setting,value
CC(C)(CO)[C@@H](O)C(=O)NCCC(=O)O,Potency,[1],inactive
same,Potency,[2],inactive
same,Potency,[3],"inconclusive: 10.7 µM [cytotoxic, single point]"
same,activation,[4],inconclusive: -17.2% [at 94.8 µM]
same,Potency,[5],inactive
same,Potency,[6],"inconclusive: 68.9 µM [rising, single point]"
same,Potency,[7],"inconclusive: 2.7 nM [rising, full curve, poor fit]"
O=Cc1ccccc1Cl,Potency,[8],inactive
same,Potency,[9],inactive
same,Potency,[7],inactive
same,Potency,[10],"inconclusive: 78.5 µM [inhibitor, single point]"
same,Potency,[11],inactive
C=C(C)OC(C)=O,Potency,[1],inactive
same,"ratio activity, negative = MMP loss",[12]; at 95.3 µM (top of the series),inactive: 9.5%
same,"ratio activity, negative = MMP loss",[12]; [19],inconclusive: 15.9%
same,Potency,[13],"inconclusive: 68.6 µM [rising, single point]"
same,"activity change, negative = cytotoxic",[13],inconclusive: 13.9% [at 95 µM]
same,Potency,[14],inactive
same,"activity change, negative = inhibition",[15],inconclusive: 27.1%
same,Potency,[5],inactive
same,Potency,[10],active: 13 µM
same,Potency,[16],"inconclusive: 73.2 µM [inhibitor, partial curve, poor fit]"
CCCCOCCCC,Potency,[1],inactive
same,Potency,[5],inactive
same,Potency,[11],inactive
same,Potency,[16],"inconclusive: 44.4 µM [inhibitor, partial curve]"
CC(C)=CCCC(C)CC(=O)O (centres undefined),Potency,[8],"inconclusive: 19.5 µM [activator, partial curve]"
same,Potency,[17],"inconclusive: 49 µM [activator, single point]"
same,Potency,[4],inactive
same,Potency,[15],inactive
same,Potency,[5],inactive
same,Potency,[7],inactive
same,Potency,[18],active: 35.6 µM
same,Potency,[16],"inconclusive: 63.3 µM [inhibitor, partial curve, poor fit]"
FB(F)F,"ratio activity, negative = MMP loss",[12]; [19],inconclusive: 17% [at 95.3 µM]
same,"ratio activity, negative = inhibition",[17],inconclusive: 3.82% [at 81.1 µM]
same,Potency,[4],inactive
same,Potency,[15],inactive
same,Potency,[9],inactive
same,Potency,[7],inactive
same,Potency,[18],inconclusive: 74.4 µM [inhibitor]
same,Potency,[11],inactive
CCOC(=O)[C@H](CCc1ccccc1)N[C@H]1CS[C@H](c2cccs2)CN(CC(=O)O)C1=O,Potency,[2],inactive
same,Potency,[5],inactive
same,Potency,[6],"inconclusive: 21.1 µM [cytotoxic, partial curve, poor fit]"
same,Potency,[7],inactive
same,Potency,[10],"inconclusive: 21.9 µM [inhibitor, partial curve]"
O=C(O)COC(=O)Cc1ccccc1Nc1c(Cl)cccc1Cl,"ratio activity, negative = MMP loss",[12]; [19],inconclusive: -0.75% [at 39.1 µM]
same,Potency,[17],"inconclusive: 21.1 µM [inhibitor, partial curve]"
same,Potency,[9],inactive
same,Potency,[6],"inconclusive: 33.5 µM [cytotoxic, partial curve, poor fit]"
same,Potency,[11],active: 13.8 µM
O=Cc1ccc(CO)o1,"ratio activity, negative = MMP loss",[12]; at 83.2 µM (top of the series),inactive: 7.46%
same,"ratio activity, negative = MMP loss",[12]; [19],inconclusive: -2.26%
same,Potency,[2],inactive
same,Potency,[13],"inconclusive: 24.3 µM [rising, partial curve]"
same,Potency,[17],inactive
same,Potency,[4],inactive
same,Potency,[14],"inconclusive: 5.51 µM [cytotoxic, single point]"
same,Potency,[9],inactive
same,Potency,[11],inactive
same,Potency,[16],"inconclusive: 44.8 µM [inhibitor, partial curve]"
CCO[Si](OCC)(OCC)c1ccccc1,Potency,[1],"inconclusive: 61.1 µM [falling, single point]"
same,"ratio activity, negative = MMP loss",[12]; [19],inconclusive: 28.5%
same,Potency,[8],inactive
same,Potency,[3],inactive
same,Potency,[9],inactive
same,Potency,[18],inactive
CS(=O)(=O)c1ccc(Cl)cc1,Potency,[8],inactive
same,Potency,[14],inactive
same,"activity change, negative = inhibition",[15],inconclusive: 11.9% [at 78.8 µM]
same,Potency,[9],inactive
same,Potency,[7],inactive
same,Potency,[10],inactive
same,Potency,[18],"inconclusive: 8.01 µM [inhibitor, single point]"
CC1(C)C(=O)C(C)(C)C1=O,Potency,[13],inactive
same,Potency,[15],inactive
same,Potency,[9],inactive
CC(=O)N1CCN(c2ccc(O)cc2)CC1,Potency,[17],inactive
same,Potency,[4],inconclusive: 33.5 µM
same,Potency,[15],inactive
same,Potency,[9],"inconclusive: 31 µM [falling, partial curve]"
same,Potency,[10],"inconclusive: 38.9 µM [inhibitor, partial curve, poor fit]"
same,Potency,[18],"inconclusive: 43.6 µM [inhibitor, single point]"
same,Potency,[11],"inconclusive: 34.7 µM [inhibitor, partial curve, poor fit]"
C=CC(C)(C)O,Potency,[5],inactive
same,Potency,[6],inactive
same,Potency,[7],inactive
same,Potency,[11],inactive
